Reference: the supplement of paper PMC4604168 (melanoma cell lines)
This is one part of the list. Most values come without repeats; read them as rough.

Columns and labels:
Assay in all cases: cell count relative to DMSO control; melanoma cells; higher = more viable cells
Details in all cases: library dose: low library concentration; 72 h
[1] = test system: WM115
[2] = test system: WM1716
[3] = test system: WM1745
[4] = test system: WM3526
[5] = test system: WM3619
[6] = test system: WM451Lu
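Also: cell number obtained by counting DAPI-stained nuclei in high-throughput microscope images with image analysis software, screen run in 1,536-well plates.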

Row | SMILES | cell count [1] | cell count [2] | cell count [3] | cell count [4] | cell count [5] | cell count [6]
1 | Cn1c(Nc2ccc(C(F)(F)F)cc2)nc2cc(Oc3ccnc(-c4ncc(C(F)(F)F)[nH]4)c3)ccc21 + O=C(O)c1ccc(-c2c[nH]c3ncc(-c4ccccc4)cc23)cc1C1CCCC1 [GSK650394] (first compound 0.08 µM, partner dose 0.16 µM) | 51.2% | 79% | 67.7% | 52.8% | 72.5% | 81.5%
2 | Clc1ccc(Nc2nnc(Cc3ccncc3)c3ccccc23)cc1 [vatalanib] + c1cc(-c2cnn3cc(-c4ccc(OCCN5CCCCC5)cc4)cnc23)ccn1 [Dorsomorphin] (first compound 2 µM, partner dose 0.4 µM) | 82% | 87.3% | 77% | 95% | 111% | 91.3%
3 | O=C(CCCCCCC(=O)Nc1ccccc1)NO [vorinostat] + Cn1cncc1[C@@](N)(c1ccc(Cl)cc1)c1ccc2c(c1)c(-c1cccc(Cl)c1)cc(=O)n2C [tipifarnib] (first compound 0.08 µM, partner dose 0.01 µM) | 78.5% | 76.6% | 93.5% | 70.3% | 86.9% | 83.3%
4 | Nc1cccc2c1CN(C1CCC(=O)NC1=O)C2=O (stereo not drawn) [lenalidomide] + Oc1cc(-c2nc(-c3ccccc3)[nH]c2-c2ccncc2)ccc1Cl [L779450] (first compound 1 µM, partner dose 0.2 µM) | 86.7% | 109% | 85.6% | 81.9% | 88.7% | 137%
5 | Cn1c(Nc2ccc(C(F)(F)F)cc2)nc2cc(Oc3ccnc(-c4ncc(C(F)(F)F)[nH]4)c3)ccc21 + NCC(=O)Nc1ccc(-n2nc(C(F)(F)F)cc2-c2ccc3c(ccc4ccccc43)c2)cc1 [OSU03012] (first compound 0.08 µM, partner dose 1 µM) | 51.3% | 75.1% | 71.8% | 50.7% | 74.7% | 59.5%
6 | O=C(CCCCCCC(=O)Nc1ccccc1)NO [vorinostat] + COc1ccc(-c2ccc3c(N4CCOCC4)nc(N4C[C@@H](C)O[C@@H](C)C4)nc3n2)cc1CO [KU0063794] (first compound 0.08 µM, partner dose 0.02 µM) | 93.6% | 111% | 89.9% | 129% | 100% | 105%
7 | C#Cc1cccc(Nc2ncnc3cc(OCCOC)c(OCCOC)cc23)c1 [erlotinib] + Cc1cc([N+](=O)[O-])ccc1NS(=O)(=O)c1cc(Cl)ccc1Cl [FH535] (first compound 0.8 µM, partner dose 1 µM) | 77.2% | 92.5% | 90.4% | 91% | 110% | 99.1%
8 | O=C(CCCCCCC(=O)Nc1ccccc1)NO [vorinostat] + NC(=O)Nc1cc(-c2cccc(F)c2)sc1C(=O)N[C@H]1CCCNC1 [AZD7762] (first compound 0.08 µM, partner dose 0.02 µM) | 87.5% | 112% | 122% | 70.1% | 52.8% | 88.1%
9 | O=C(CCCCCCC(=O)Nc1ccccc1)NO [vorinostat] + COc1cc2ncnc(Nc3ccc(Oc4ccccc4)cc3)c2cc1OC [SrcI1] (first compound 0.08 µM, partner dose 2 µM) | 101% | 113% | 100% | 97.2% | 108% | 108%
10 | O=C(CCCCCCC(=O)Nc1ccccc1)NO [vorinostat] + CCN(CC)CCCCNc1ncc2cc(-c3cc(OC)cc(OC)c3)c(NC(=O)NC(C)(C)C)nc2n1 [PD173074] (first compound 0.08 µM, partner dose 0.1 µM) | 107% | 102% | 102% | 101% | 89.1% | 116%
11 | C#Cc1cccc(Nc2ncnc3cc(OCCOC)c(OCCOC)cc23)c1 [erlotinib] + Cn1nnc2c(C(N)=O)ncn2c1=O [temozolomide] (first compound 0.8 µM, partner dose 2 µM) | 96.1% | 84% | 95.9% | 76.6% | 97.2% | 92.5%
12 | C#Cc1cccc(Nc2ncnc3cc(OCCOC)c(OCCOC)cc23)c1 [erlotinib] + C[C@@H]1CCN(C(=O)CC#N)C[C@@H]1N(C)c1ncnc2[nH]ccc12 [CP690550] (first compound 0.8 µM, partner dose 1 µM) | 93.9% | 98.8% | 82.7% | 95.8% | 103% | 108%
13 | OCc1c[nH]c2ccccc12 [Indole-3-carbinol] + Cn1cc(/C=C2\C(=O)Nc3cccnc32)c2ccccc21 [GW441756] (first compound 0.8 µM, partner dose 0.4 µM) | 97.4% | 95.8% | 103% | 102% | 105% | 103%
